What all share (assay): co-IP; FLAG-fusion baits overexpressed in HEK293; sonicated lysates (20 mM Tris-HCl pH 7.5, 20 mM NaCl, 0.5% IGEPAL CA-630, 1 mM DTT, 1 mM EDTA, 0.1 mM MG-132) rotated with anti-FLAG M2 magnetic beads for 3 hours, washed 3 times; endogenous partners detected by Western blot
A general note: In western blotting, separated proteins are transferred to a membrane and probed.

By UniProt entry, the sequences of proteins in these tests, tags left out.
UniProt Q8NHY2: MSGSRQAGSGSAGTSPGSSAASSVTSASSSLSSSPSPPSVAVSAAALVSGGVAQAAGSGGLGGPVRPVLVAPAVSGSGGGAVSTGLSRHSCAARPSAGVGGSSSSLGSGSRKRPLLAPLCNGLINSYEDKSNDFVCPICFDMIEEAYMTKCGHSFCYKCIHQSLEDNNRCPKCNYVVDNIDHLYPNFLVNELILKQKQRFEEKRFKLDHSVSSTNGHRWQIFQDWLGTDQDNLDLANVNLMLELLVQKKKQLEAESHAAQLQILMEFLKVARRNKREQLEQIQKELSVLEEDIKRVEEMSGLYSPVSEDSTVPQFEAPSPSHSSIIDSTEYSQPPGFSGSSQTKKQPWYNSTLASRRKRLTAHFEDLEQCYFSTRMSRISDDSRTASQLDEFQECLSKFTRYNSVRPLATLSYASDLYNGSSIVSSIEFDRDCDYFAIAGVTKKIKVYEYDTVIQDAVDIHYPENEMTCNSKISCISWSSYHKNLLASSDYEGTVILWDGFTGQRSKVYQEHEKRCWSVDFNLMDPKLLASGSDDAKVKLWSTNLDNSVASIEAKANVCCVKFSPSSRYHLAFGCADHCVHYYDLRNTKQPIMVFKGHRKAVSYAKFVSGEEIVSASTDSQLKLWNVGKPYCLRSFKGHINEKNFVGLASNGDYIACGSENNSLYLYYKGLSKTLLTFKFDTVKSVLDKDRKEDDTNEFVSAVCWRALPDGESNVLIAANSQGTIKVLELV
UniProt Q14160: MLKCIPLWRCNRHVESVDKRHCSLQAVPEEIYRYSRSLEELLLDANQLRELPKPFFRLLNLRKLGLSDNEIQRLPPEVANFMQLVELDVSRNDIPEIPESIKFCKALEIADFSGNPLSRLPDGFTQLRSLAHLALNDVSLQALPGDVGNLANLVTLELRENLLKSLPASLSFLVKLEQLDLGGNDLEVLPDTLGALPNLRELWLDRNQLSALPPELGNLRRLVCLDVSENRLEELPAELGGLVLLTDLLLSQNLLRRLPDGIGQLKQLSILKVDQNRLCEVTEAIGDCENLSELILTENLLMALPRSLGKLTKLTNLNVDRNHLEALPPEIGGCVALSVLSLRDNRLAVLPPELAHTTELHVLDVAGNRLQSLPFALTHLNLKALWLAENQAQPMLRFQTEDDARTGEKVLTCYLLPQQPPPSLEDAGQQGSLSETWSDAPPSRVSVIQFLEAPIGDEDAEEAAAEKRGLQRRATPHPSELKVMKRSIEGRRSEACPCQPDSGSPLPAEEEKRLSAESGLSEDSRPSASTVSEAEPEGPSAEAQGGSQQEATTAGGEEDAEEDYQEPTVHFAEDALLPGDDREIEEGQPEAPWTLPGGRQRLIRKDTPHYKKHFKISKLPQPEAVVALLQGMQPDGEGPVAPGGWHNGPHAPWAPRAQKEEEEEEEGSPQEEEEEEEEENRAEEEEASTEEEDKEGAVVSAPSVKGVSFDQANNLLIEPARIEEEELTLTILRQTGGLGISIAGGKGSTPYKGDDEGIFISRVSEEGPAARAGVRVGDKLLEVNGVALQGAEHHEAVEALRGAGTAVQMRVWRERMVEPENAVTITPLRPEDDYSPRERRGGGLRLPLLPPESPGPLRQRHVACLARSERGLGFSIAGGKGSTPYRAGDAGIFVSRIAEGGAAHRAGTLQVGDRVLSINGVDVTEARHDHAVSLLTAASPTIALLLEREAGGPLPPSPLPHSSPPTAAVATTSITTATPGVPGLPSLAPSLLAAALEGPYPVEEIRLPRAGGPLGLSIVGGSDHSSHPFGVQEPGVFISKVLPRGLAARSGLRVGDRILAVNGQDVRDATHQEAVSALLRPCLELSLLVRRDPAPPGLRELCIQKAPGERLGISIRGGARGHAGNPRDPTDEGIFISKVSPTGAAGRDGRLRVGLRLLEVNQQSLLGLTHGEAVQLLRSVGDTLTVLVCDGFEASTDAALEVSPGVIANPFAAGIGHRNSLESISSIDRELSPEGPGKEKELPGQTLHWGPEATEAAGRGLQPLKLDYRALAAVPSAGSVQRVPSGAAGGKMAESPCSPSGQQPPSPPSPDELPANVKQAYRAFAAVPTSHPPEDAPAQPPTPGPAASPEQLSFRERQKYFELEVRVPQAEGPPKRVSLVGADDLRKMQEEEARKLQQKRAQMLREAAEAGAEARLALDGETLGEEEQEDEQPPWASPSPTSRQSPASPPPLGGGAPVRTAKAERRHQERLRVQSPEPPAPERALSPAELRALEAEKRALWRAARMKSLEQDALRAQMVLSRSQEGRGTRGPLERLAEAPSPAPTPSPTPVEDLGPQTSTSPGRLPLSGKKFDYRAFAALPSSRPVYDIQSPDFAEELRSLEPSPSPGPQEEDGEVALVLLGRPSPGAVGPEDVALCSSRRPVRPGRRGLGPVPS

Experiment [1] deals with T1, FLAG-TRAF7 N520S, meningioma mutant of full-length human TRAF7 (human) (UniProt Q6Q0C0).
T1 sequence: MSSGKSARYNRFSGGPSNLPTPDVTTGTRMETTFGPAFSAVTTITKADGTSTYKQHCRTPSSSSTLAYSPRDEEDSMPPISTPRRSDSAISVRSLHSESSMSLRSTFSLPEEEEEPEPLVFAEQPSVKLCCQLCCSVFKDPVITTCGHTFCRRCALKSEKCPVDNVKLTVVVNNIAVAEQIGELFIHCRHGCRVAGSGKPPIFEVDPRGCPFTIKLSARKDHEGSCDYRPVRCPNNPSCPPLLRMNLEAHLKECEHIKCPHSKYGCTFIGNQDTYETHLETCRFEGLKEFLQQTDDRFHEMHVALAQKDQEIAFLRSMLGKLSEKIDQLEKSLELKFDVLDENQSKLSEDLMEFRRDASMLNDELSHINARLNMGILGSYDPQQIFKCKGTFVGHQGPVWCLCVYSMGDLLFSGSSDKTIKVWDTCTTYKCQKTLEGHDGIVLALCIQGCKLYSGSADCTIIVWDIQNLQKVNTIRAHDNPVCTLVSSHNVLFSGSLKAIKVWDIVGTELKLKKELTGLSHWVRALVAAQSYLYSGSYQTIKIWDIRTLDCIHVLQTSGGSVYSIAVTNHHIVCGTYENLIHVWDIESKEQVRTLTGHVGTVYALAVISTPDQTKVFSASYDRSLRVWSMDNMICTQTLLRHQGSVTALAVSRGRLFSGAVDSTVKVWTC

Experiment [2] addresses FLAG-fusion protein of bacterial alkaline phosphatase (BAP) [phosphatase: P00634].
Experiment [3] deals with T2, FLAG-TRAF7(1-292) (human) (UniProt Q6Q0C0).
T2 sequence: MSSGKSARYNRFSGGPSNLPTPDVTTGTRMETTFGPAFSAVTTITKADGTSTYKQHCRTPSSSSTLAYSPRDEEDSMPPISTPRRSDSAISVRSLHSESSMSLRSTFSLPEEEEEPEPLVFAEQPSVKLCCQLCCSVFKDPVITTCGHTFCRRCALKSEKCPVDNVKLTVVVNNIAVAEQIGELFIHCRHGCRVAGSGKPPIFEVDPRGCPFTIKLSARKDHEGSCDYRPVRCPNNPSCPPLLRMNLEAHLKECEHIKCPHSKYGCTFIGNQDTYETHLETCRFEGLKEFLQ

Experiment [4] concerns the target FLAG-COP1, human E3 ubiquitin ligase constitutive photomorphogenic 1 (human) (UniProt Q8NHY2).
For experiment [5], the target named is T3, FLAG-TRAF7(121-292) (human) (UniProt Q6Q0C0).
T3 sequence: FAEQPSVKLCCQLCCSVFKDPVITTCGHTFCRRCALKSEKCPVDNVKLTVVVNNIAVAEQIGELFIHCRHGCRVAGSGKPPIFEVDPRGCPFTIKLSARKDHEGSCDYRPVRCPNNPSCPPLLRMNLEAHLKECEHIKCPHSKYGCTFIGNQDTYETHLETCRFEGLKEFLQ

In experiment [6] the target is T4, FLAG-TRAF7(1-127) (human) (UniProt Q6Q0C0).
T4 sequence: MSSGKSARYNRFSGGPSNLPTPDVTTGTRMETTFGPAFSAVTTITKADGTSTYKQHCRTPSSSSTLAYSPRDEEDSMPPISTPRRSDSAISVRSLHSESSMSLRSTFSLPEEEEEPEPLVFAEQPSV

For experiment [7], the target named is T5, FLAG-TRAF7, full-length human TRAF7 (human) (UniProt Q6Q0C0).
T5 sequence: T1 sequence with S520N

Where a chain is given by its changes, count along the chain named. These are yes or no findings as the source states them, for the method shown. In cells and extracts the contact can be indirect. Some entries that bind do so weakly or less than the wild type. For some of these results: Sequences can lack the tags named with a protein.

As to “planar cell polarity protein scribble homolog (SCRIB), endogenous (from UniProt Q14160 1-1655)”, the binding result in experiment [1] is recorded as “binds”; in experiment [2], “no binding”; in experiment [3] it was “binds”; in experiment [4] it was “no binding”; in experiment [5] it was “no binding”; in experiment [6] it was “no binding”. Further, in experiment [7], the binding entry is given as “binds”.

These data come from PMC10424150.
